# Experimental data from PubChem BioAssay AID686978 (National Center for Advancing Translational Sciences (NCATS), 2013).
# The campaign covered roughly 420,000 compounds. About 64,000 (15%) were called active. Inconclusive means that the source gave no clear call. Such entries were picked first, then a sample of the others. The call rests on the fitted dose curve; in most records, active means well fitted inhibition curve with a large enough effect; inconclusive means small, poorly fitted or top-dose-only effect; inactive means flat fitted curve, though single readings scatter. No potency is given beside an inconclusive call; the fits are too rough.
# Test: qHTS for Inhibitors of human tyrosyl-DNA phosphodiesterase 1 (TDP1): qHTS in cells in absence of CPT; further: nearly all actives have a fitted effect of over 55% in size
# Conditions: DT40 Tdp1-/- hTDP1 cells, no CPT, ATP luminescence, 48 h; activity change, negative = growth inhibition: at 46.2 µM (top of the series) unless noted
# Summary of the method: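 Growth of hTDP1-complemented DT40 Tdp1-knockout cells is measured by ATP luminescence after at least 48 hr compound exposure at 37 °C, with DMSO substituting for the 20 nM CPT used in the parallel screen.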
# On the % scale 0 is the no-effect control and ±100 the full control effect; potency means the concentration at half of the fitted maximal effect; tags describe the fitted curve by direction and shape.
Structure (SMILES),Potency,"activity change, negative = growth inhibition"
CCOC(=O)c1c(NC(=O)CSc2nc3ccccc3o2)sc(C(C)=O)c1C,"inconclusive [inhibitor, single point]",
Cc1cccc(C)c1NC(=O)C(Cl)C(=O)c1ccccc1 (centres undefined),active: 7.31 µM,
C=CCn1c(SCC(=O)NC(N)=O)nnc1-c1cc2c(s1)CCC(CC)C2 (centres undefined),,inconclusive: -34.8% [inhibitor]
Cc1ccc(SCc2nc3ccccc3n2CC(=O)Nc2ccc(Cl)cc2)cc1,"inconclusive [inhibitor, single point]",
COc1ccc(-n2ncc(C(=O)N3CCN(c4ccccn4)CC3)c2C2CCN(C(=O)OC(C)(C)C)CC2)cc1,active: 20.6 µM,
O=C(COC(=O)c1ccc(NS(=O)(=O)c2cccs2)cc1)NCc1ccco1,active: 2.91 µM,
CC1(N2CCOCC2)CC2(O)C(=[N+]1[O-])CCc1c2no[n+]1[O-] (centres undefined),"inconclusive [inhibitor, single point]",
CCCCNc1nc(Oc2ccc(=O)n(-c3ccccc3)n2)nc(N(C)C)n1,"inconclusive [inhibitor, single point]",
CCOc1ccc(OCCn2c(=S)[nH]c3c(N)ncnc32)cc1,,inactive: 0.498%
Cc1[nH]nc2c1C(c1cc(Br)cs1)C(C#N)=C(N)O2 (centres undefined),active: 5.17 µM,
Cc1nnc(-c2ccco2)c2cn(-c3cccc(Br)c3)nc12,active: 23.1 µM,
O=C(CSCc1ccc(F)cc1)N1CCOCC1,,inactive: -8.48%
CCOc1ccccc1C(=O)NCC(=O)NCC(c1ccco1)N1CCCCC1 (centres undefined),,inactive: -16.7%
CCN(CC)C(=O)COc1ccc2oc(C)c(C(=O)OC(C)C)c2c1,active: 16.4 µM,
COc1ccc(/C=C2\CCCCC2=O)cc1,,inactive: -22.6%
COc1ccc(NC(=O)CSc2ccccc2)cc1S(=O)(=O)N1CCCCC1,"inconclusive [inhibitor, single point]",
CN(CC(=O)Nc1ccc(Cl)c(C(F)(F)F)c1)C(=O)CCN1C(=O)C2CC=CCC2C1=O (centres undefined),"inconclusive [inhibitor, single point]",
CC1(C)C(O)=C(c2nc3ccccc3[nH]2)C(=N)N1c1ccccc1,"inconclusive [inhibitor, full curve, poor fit]",
O=C(O)c1ccc(NC2CC(=O)N(Cc3ccccc3)C2=O)cc1 (centres undefined),,inactive: -2.7%
N#Cc1ccc(CN2CCN(CC(=O)NCCc3ccc(Cl)cc3Cl)CC2)cc1,active: 20.6 µM,
O=C(Nc1cc(Cl)cc(Cl)c1)c1cccc(OC(F)F)c1,"inconclusive [inhibitor, single point]",
O=C(N/N=C/c1cn(-c2ccccc2)nc1-c1ccc(F)cc1)c1ccc2c(c1)OCO2,active: 18.4 µM,
O=C(Nc1nnc(-c2ccco2)o1)c1ccc(Br)s1,"inconclusive [inhibitor, single point]",

Structure (SMILES),Potency,"activity change, negative = growth inhibition"
Cn1c(=O)oc2cc(S(=O)(=O)N3CCCC(C(=O)Nc4ccccn4)C3)ccc21 (centres undefined),,inactive: -13.1%
N#Cc1ccccc1NC(=O)c1cc(=O)c2ccccc2o1,"inconclusive [inhibitor, partial curve, poor fit]",
Cc1nnc(N2CCN(c3ccccc3F)CC2)c2c1nnn2Cc1ccc(F)cc1,"inconclusive [inhibitor, single point]",
CCOc1ccccc1NC(=O)C(NS(=O)(=O)c1cccc2nsnc12)c1ccccc1 (centres undefined),"inconclusive [inhibitor, partial curve]",
Cc1ccccc1NC(=O)CCN1CCN(C/C=C/c2ccccc2)CC1,"inconclusive [inhibitor, single point]",
O=C(Nc1ccc(Br)cn1)C1CCCN1S(=O)(=O)c1ccccc1 (centres undefined),"inconclusive [inhibitor, single point]",
COCCNC(=O)c1c(NC(=O)Cc2coc3cc(C)ccc23)sc2c1CCCC2,"inconclusive [inhibitor, single point]",
N=c1c2c3c(sc2ncn1CCN1CCOCC1)CCCCC3,"inconclusive [inhibitor, single point]",
COc1ccc2oc(C(=O)OC(C)C(=O)Nc3ccc(N4CCOCC4)cc3)c(C)c2c1 (centres undefined),,inactive: 11%
COc1ccc(N2CCN(c3nc(-c4ccccc4F)nc4ccccc34)CC2)cc1,active: 16.4 µM,
CCOC(=O)c1cn(CC(=O)Nc2cccc(Cl)c2C)nn1,inactive,
O=C1NC[C@@H](Cc2ccc(O)cc2)N(CCc2cc(C(F)(F)F)cc(C(F)(F)F)c2)C1=O,,inactive: -18.6%
COc1ccc(CC(=O)NCc2ccc(-n3cccc3)cc2)cc1OC,active: 2.31 µM,
Cc1cc(NC(=O)C2CCN(S(=O)(=O)Cc3ccccc3)CC2)ccc1-n1cnnn1,"inconclusive [inhibitor, partial curve]",
COc1cc(SC)ccc1C(=O)N(CC(=O)Nc1ccccc1Br)Cc1ccco1,"inconclusive [inhibitor, partial curve, poor fit]",
CSc1cccc(NC(=O)COc2ccccc2C)c1,"inconclusive [inhibitor, partial curve]",
CC1CN(S(=O)(=O)c2ccc(C(=O)NCCCn3ccnc3)cc2)CC(C)O1 (centres undefined),"inconclusive [inhibitor, single point]",
CCOC(=O)C(C)Oc1cccc2c(=O)n(CC(=O)N3CCN(C(=O)OCC)CC3)ccc12 (centres undefined),,inactive: -20.6%
Cc1ccc(C)c(Nc2nc(-c3cccnc3)cs2)c1,"inconclusive [inhibitor, partial curve]",
O=C(NCc1ccccc1OC(F)(F)F)C1CCC(=O)N(Cc2ccccn2)C1 (centres undefined),"inconclusive [inhibitor, single point]",
Cc1ccc(-n2c(C)cc(C(=O)CN3CCOCC3)c2C)cc1C,"inconclusive [inhibitor, partial curve]",
O=C(Cc1ccccc1)Nc1ccccc1N1CCN(c2ccccc2)CC1,"inconclusive [inhibitor, single point]",
COc1ccc(C(C)C)cc1-c1ccc2nncn2c1,"inconclusive [inhibitor, single point]",

Structure (SMILES),Potency,"activity change, negative = growth inhibition"
O=C(NCC(c1cccs1)N1CCOCC1)C1CCN(S(=O)(=O)c2cc(Cl)ccc2Cl)CC1 (centres undefined),"inconclusive [inhibitor, single point]",
CC(C)(C)CC(C)(C)NC(=O)CSCC(=O)Nc1ccc2ccccc2c1,"inconclusive [inhibitor, single point]",
Cc1ccccc1N(C(=O)c1csnn1)C(C(=O)NC(C)(C)C)c1cccs1 (centres undefined),"inconclusive [inhibitor, single point]",
Cc1oc2c(cc(NS(=O)(=O)c3ccc4c5c(cccc35)C(=O)N4)c3ccccc32)c1C(=O)OC(C)C,"inconclusive [inhibitor, single point]",
Cc1ccccc1NS(=O)(=O)c1ccc(Br)s1,,inactive: -2.55%
CC(=O)c1ccc(Sc2nnc(C)s2)c([N+](=O)[O-])c1,"inconclusive [inhibitor, single point]",
CCN(CC)CCNC(C(=O)Nc1cccc(C(C)=O)c1)c1ccccc1 (centres undefined),"inconclusive [inhibitor, single point]",
CCOc1ccccc1-n1c(SCC(=O)N(CC)CC)nnc1-c1ccccn1,"inconclusive [inhibitor, single point]",
O=C(NC1CC1)c1cccc2c1C(=O)c1ccc(N3CCC(Cc4ccccc4)CC3)cc1S2(=O)=O,active: 13 µM,
CCCc1nc(SCC(=O)Nc2cc(C)on2)c2ccccc2n1,,inconclusive: -32.6% [inhibitor]
Cc1ccc(C(C)(C)C)c(OCC(=O)NCCc2nc3ccccc3[nH]2)c1,active: 7.31 µM,
Cc1cc(C)cc(NC(=O)c2ccc(NC3=NC4CS(=O)(=O)CC4S3)cc2)c1 (centres undefined),"inconclusive [inhibitor, single point]",
COc1ccccc1N1CCN(C(=O)c2ccccc2SCC(=O)N2CCCC2)CC1,"inconclusive [inhibitor, single point]",
CC(C)CN(C(=O)COC(=O)Cc1ccc(Cl)cc1)c1c(N)n(Cc2ccccc2)c(=O)[nH]c1=O,"inconclusive [inhibitor, single point]",
CN(Cc1ccccc1)S(=O)(=O)c1ccc(F)c(C(=O)Nc2cccc(Cl)c2Cl)c1,,inactive: -21.5%
CCN(CC)S(=O)(=O)c1ccc(NC(=S)NC(=O)C(C)C)cc1,"inconclusive [inhibitor, single point]",
CC(O)(c1ccc(F)c(F)c1)c1nc(-c2cnc3ccccc3c2)cs1 (centres undefined),active: 14.6 µM,
O=C(Nc1ccc(Cl)cc1)c1csc([C@@H]2O[C@H](CO)[C@@H](O)[C@H]2O)n1,"inconclusive [inhibitor, partial curve]",
CC(C)OCc1c(C(=O)Nc2nccs2)oc2ccccc12,"inconclusive [inhibitor, single point]",
CCOC(=O)c1cnc(SCc2nc(N)nc(Nc3ccc(OC)cc3)n2)nc1N,"inconclusive [inhibitor, partial curve]",
COc1cc(OC)cc(C(=O)NCC(=O)NCCN2C(=O)S/C(=C\c3ccccc3Cl)C2=O)c1,"inconclusive [inhibitor, single point]",
OCCC1CN(Cc2cnc(-c3cccc4ccccc34)nc2)CCN1C1CCCCC1 (centres undefined),active: 18.4 µM,
CCOc1ccc(S(=O)(=O)Nc2cccc(OC)c2)cc1,"inconclusive [inhibitor, partial curve]",
